Data from PubChem BioAssay AID485294 (National Center for Advancing Translational Sciences (NCATS), 2010).
In all, about 370,000 compounds went through this assay and about 150 (0.041%) were called active. The shares of active, inactive and inconclusive entries below differ from those in the screen. Calls follow the shape of the dose curve; as a rule, active = well fitted inhibition curve with a large enough effect; inconclusive = small, poorly fitted or top-dose-only effect; inactive = flat fitted curve, though single readings scatter. Potencies of inconclusive entries are left out as doubtful fits.

biological target: Beta-lactamase (Escherichia coli (strain K12)) (UniProt P00811); test: qHTS Inhibitors of AmpC Beta-Lactamase (assay with detergent); settings: AmpC hydrolysis of nitrocefin, absorbance 480 nm, 0.01% Triton; series mostly up to 114 µM; also: nearly all actives have a fitted effect of over 25% in size
Procedure, shortened: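 AmpC (5.3 nM in the dispensed reagent) in 20 mM phosphate pH 7.0 with 0.01% (detergent screen) or 0.0001% Triton X-100 was preincubated with compounds for 15 min at room temperature. Nitrocefin was then added from an 800 uM solution, and hydrolysis was followed at 480 nm.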
Potency is read from the fitted curve at half-maximal effect; tags tell the direction and shape of the fitted curve.

UniProt P00811, sequence (P00811 whole entry, looked up): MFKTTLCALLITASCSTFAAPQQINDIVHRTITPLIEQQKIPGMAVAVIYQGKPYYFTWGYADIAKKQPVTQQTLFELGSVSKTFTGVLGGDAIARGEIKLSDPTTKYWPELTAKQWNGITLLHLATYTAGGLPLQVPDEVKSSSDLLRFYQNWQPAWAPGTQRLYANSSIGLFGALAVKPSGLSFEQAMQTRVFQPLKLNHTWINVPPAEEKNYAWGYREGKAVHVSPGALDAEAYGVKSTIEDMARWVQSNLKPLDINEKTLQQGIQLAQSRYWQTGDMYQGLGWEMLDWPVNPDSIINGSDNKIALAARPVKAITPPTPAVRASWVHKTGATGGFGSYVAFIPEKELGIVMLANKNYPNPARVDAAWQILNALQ

Row | Structure (SMILES) | Potency
1 | COc1ccccc1C(=O)NC(=O)CSc1nncn1C | inconclusive [inhibitor, single point]
2 | O=C(Cn1cncn1)NCc1cccc2ccccc12 | inconclusive [inhibitor, partial curve, poor fit]
3 | CCN(CCn1cccn1)C(=O)c1ccc2nc(Cc3ccc(OC)cc3)oc2c1 | inactive
4 | O=C(O)CCN1C(=O)c2ccc(Oc3ccc4c(c3)C(=O)N(CCC(=O)O)C4=O)cc2C1=O | inconclusive [inhibitor, partial curve, poor fit]
5 | Cn1c(=O)c2c3c(sc2n2c(SCc4ccc5c(c4)OCO5)nnc12)COC(C)(C)C3 | inconclusive [inhibitor, full curve, poor fit]
6 | O=C(NCCc1c[nH]c2ccccc12)C(=O)NCC1OCCN1S(=O)(=O)c1ccc(F)cc1 (centres undefined) | inconclusive [inhibitor, partial curve]
7 | COc1cc2c(cc1OC)C(C(=O)N1CCN(c3ccccc3)CC1)C(c1cccs1)N(C)C2=O (centres undefined) | inconclusive [inhibitor, single point]
8 | COc1cc(OC)c(C(=O)O/N=C(\N)c2ccc(C)cc2)cc1OC | inactive
9 | O=C(CCOc1ccccc1)Nc1ccccc1[N+](=O)[O-] | inactive
10 | Cc1ccc(C2(C)NC(=O)N(CC(=O)N(C)CC(=O)Nc3cccc4ccccc34)C2=O)cc1 (centres undefined) | inconclusive [inhibitor, partial curve, poor fit]
11 | Cc1ccc(S(=O)(=O)N2CCN(C(=O)COC(=O)Cc3ccc(Cl)cc3)CC2)c(C)c1 | inconclusive [inhibitor, full curve, poor fit]
12 | O=C(O)CN1C(=O)CC(Cc2ccc(Cl)cc2)C1=O (centres undefined) | inconclusive [inhibitor, full curve, poor fit]
13 | O=S(=O)(NC1=NCCCCC1)c1ccc2ccccc2c1 | inactive
14 | CCn1c(SCC(=O)Nc2nc(C)c(C(=O)OC)s2)nnc1C(C)C | inconclusive [inhibitor, partial curve]
15 | COc1c(Cl)cc(Cl)cc1/C=N/n1cnnc1 | inconclusive [inhibitor, full curve, poor fit]
16 | COc1ccc2c(c1)CCc1c(C(=O)NCc3cccnc3)noc1-2 | inactive
17 | O=C(CSc1cccc[n+]1[O-])C12CC3CC(CC(C3)C1)C2 | inactive
18 | Cn1c(=O)c(C(=O)COC(=O)c2cc(-c3ccco3)nc3ccccc23)c(N)n(CC2CC2)c1=O | inconclusive [inhibitor, full curve, poor fit]
19 | CCCCOCCCNC(=O)Cc1ccccc1OC | inconclusive [inhibitor, partial curve, poor fit]
20 | CN(C(=O)c1ccccc1Br)C1CCS(=O)(=O)C1 (centres undefined) | inactive
21 | CC(=O)Nc1ccc(C(=O)OCCC(C)C)cc1 | inactive
22 | CCCCC(=O)Nc1ncc([N+](=O)[O-])s1 | inconclusive [inhibitor, full curve, poor fit]
23 | Cc1cc(-c2nnc(SCC(=O)Nc3ccccc3C)n2N)n[nH]1 | inactive

Row | Structure (SMILES) | Potency
24 | CCOC(=O)c1c(NC(=O)CN2C(=O)c3ccccc3C2=O)sc(Cc2ccc3c(c2)OCO3)c1C | inconclusive [inhibitor, full curve]
25 | O=C1C=C(N(CCO)Cc2ccccc2)c2ccccc2C1=O | inactive
26 | O=C(Nc1cccc2cccc(NC(=O)c3ccco3)c12)c1ccco1 | inconclusive [inhibitor, full curve, poor fit]
27 | COC(=O)c1ccc(CN(c2ccccc2OC)S(=O)(=O)c2cccs2)o1 | inconclusive [inhibitor, full curve, poor fit]
28 | COCCN1C(=O)N(c2cccc(OC)c2)C(=O)C1CC(=O)Nc1ccc(Cl)cc1 (centres undefined) | inconclusive [inhibitor, full curve]
29 | O=C(OCCN1CCOCC1)c1ccc(O)cc1 | inconclusive [inhibitor, full curve, poor fit]
30 | CC(C)(C)NC(=O)c1ccc2c(c1)N(CC(=O)N1CCN(c3ccc(F)cc3)CC1)C(=O)C(C)(C)O2 | inconclusive [inhibitor, partial curve, poor fit]
31 | Nc1ncnc(Nc2cccc(F)c2)n1 | inactive
32 | COCCn1c(SCC(=O)N(C)c2ccccc2)nc2c([nH]c3ccccc32)c1=O | inactive
33 | COc1ccc2nc(SC(C)C(=O)NCC(=O)Nc3ccc(F)c(F)c3F)[nH]c2c1 (centres undefined) | inconclusive [inhibitor, full curve]
34 | Cc1cc(C)nc(NC(=O)/C=C/c2ccccc2Cl)n1 | inactive
35 | CCN(CC)Cc1c(O)ccc2c(-c3ccccc3)cc(=O)oc12 | inconclusive [inhibitor, full curve, poor fit]
36 | O=C(Nc1ccccc1)c1ccc(-c2ccccc2C(F)(F)F)o1 | inconclusive [inhibitor, full curve, poor fit]
37 | COc1cc(NC(=O)CSc2nc3nc(C)c(Cc4ccc(C)cc4)c(C)n3n2)cc(OC)c1 | inactive
38 | O=C(O)CC/C(=N\Nc1ccc([N+](=O)[O-])cc1S(=O)(=O)N1CCOCC1)c1cccs1 | inactive
39 | O=C(CSC1=NC2(CCCCCC2)N=C1c1ccccc1)Nc1ccc2c(c1)OCCO2 | inconclusive [inhibitor, partial curve, poor fit]
40 | Cc1ccc(C2=NC(C)(C)NC2=O)cc1 | inconclusive [inhibitor, full curve, poor fit]
41 | CCOc1cc(-c2noc(CCC(=O)NCC3CCCO3)n2)ccc1OC (centres undefined) | inconclusive [inhibitor, partial curve]
42 | CC(=O)c1sc(NC(=O)COc2ccc(Cl)cc2C)nc1C | inactive
43 | COc1ccc2oc(C)c(NC(C)=O)c2c1 | inconclusive [inhibitor, full curve, poor fit]
44 | CCOC(=O)c1cccc(NC(=O)C(C)n2c(C)c3cnn(-c4ccccc4)c(=O)c3c2C)c1 (centres undefined) | inactive
45 | O=C(CSc1nc2ccccc2nc1Cc1ccccc1)Nc1ccc2c(c1)OCO2 | inactive
46 | CCOc1ccc(C(CC(=O)O)NC(=O)c2cccs2)cc1 (centres undefined) | inconclusive [inhibitor, partial curve]

Row | Structure (SMILES) | Potency
47 | CC(=O)Nc1ncc(Cc2cccc(Cl)c2)s1 | inactive
48 | CN(C)S(=O)(=O)c1ccc(NC(=O)CSc2nc3ccccc3n2-c2ccccc2)cc1 | inconclusive [inhibitor, full curve]
49 | COc1cc2cc(CN(Cc3nnnn3Cc3ccccc3)CC3CCCO3)c(=O)[nH]c2cc1OC (centres undefined) | inconclusive [inhibitor, partial curve]
50 | COc1ccccc1C(=O)Nc1nnc(SCC(=O)NCc2ccco2)s1 | inactive
51 | COC(=O)Nc1sc2c(c1C(N)=O)CCCCCC2 | inconclusive [inhibitor, full curve, poor fit]
52 | O=C1CC(c2ccc(S(=O)(=O)NCCOc3ccccc3)cc2)CN1 (centres undefined) | inconclusive [inhibitor, full curve, poor fit]
53 | Cc1cc(=O)[nH]c(SCc2cc(=O)n3nc(C)sc3n2)n1 | inconclusive [inhibitor, partial curve, poor fit]
54 | CCC(C)Nc1c2c(nc3c(-c4ccccc4)c(C)nn13)CCC2 (centres undefined) | inactive
55 | O=C(Nc1ccc(F)cc1F)c1cc2n(n1)C(C(F)(F)F)C1CCCCC1N2 (centres undefined) | inconclusive [inhibitor, full curve]
56 | Cc1ccc(NC(=O)CCl)cc1S(=O)(=O)N1CCCCCC1 | inconclusive [inhibitor, full curve, poor fit]
57 | COc1cc(NS(=O)(=O)c2ccc(OC)c(OC)c2)cc(OC)c1 | inconclusive [inhibitor, full curve, poor fit]
58 | CCC(=O)Nc1cccc(NC(=O)CSc2nnnn2C2CCCC2)c1 | inconclusive [inhibitor, partial curve, poor fit]
59 | CCOC(=O)N1CCN(CCCc2ccccc2)CC1 | inconclusive [inhibitor, full curve, poor fit]
60 | Cc1ccc(C)c(NC(=S)NC(NC(=O)OCc2ccccc2)C(Cl)(Cl)Cl)c1 (centres undefined) | inactive
61 | COc1ccc(C(C)=O)cc1COC(=O)c1ccc(S(=O)(=O)N(C)C)cc1 | inactive
62 | CCOC(=O)c1nnc2cc(-c3ccccc3)nn2c1C | inconclusive [inhibitor, partial curve, poor fit]
63 | CC(C)Cn1c(SC(C)C(=O)NC2CC2)nnc1-c1ccccc1F (centres undefined) | inconclusive [inhibitor, single point]
64 | CCOC(=O)C1=C(C)NC(SCC(=O)O)=C(C#N)C1c1ccco1 (centres undefined) | inconclusive [inhibitor, single point]
65 | Cc1ccc(CC(CC(=O)O)C(=O)NCc2ccccc2)cc1 (centres undefined) | inconclusive [inhibitor, partial curve, poor fit]
66 | CSc1ccccc1OCc1cc(C(=O)NCCc2nc(C)cc(C)n2)no1 | inconclusive [inhibitor, full curve]
67 | CCOc1ccccc1-n1cc2c(c1-c1ccc(OC)cc1)c(=O)n(C)c(=O)n2C | inactive
68 | Cc1ccnc(NC(=O)C(C)N2C(=O)c3ccccc3S2(=O)=O)c1 (centres undefined) | inconclusive [inhibitor, full curve, poor fit]
69 | CC(C)Sc1nnc(CNC(=O)C23CC4CC(CC(C4)C2)C3)n1Cc1ccccc1 | inconclusive [inhibitor, full curve, poor fit]
